Assay results as given in publication PMC4336329 (PLoS ONE, 2015).
The whole screen tested about 310,000 compounds, of which about 14,000 (4.5%) showed an effect of 50% or more. The effect is printed as a negative number. The list shows a part of the results.

target: human ether-à-go-go-related gene (hERG) potassium channel (human, UniProt Q12809); assay: primary screen, population patch clamp on CHO cells stably expressing hERG
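Further: peak tail current of the secondary pulse compared with the same well before compound.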

human ether-à-go-go-related gene (hERG) potassium channel, sequence (Q12809 whole entry, looked up): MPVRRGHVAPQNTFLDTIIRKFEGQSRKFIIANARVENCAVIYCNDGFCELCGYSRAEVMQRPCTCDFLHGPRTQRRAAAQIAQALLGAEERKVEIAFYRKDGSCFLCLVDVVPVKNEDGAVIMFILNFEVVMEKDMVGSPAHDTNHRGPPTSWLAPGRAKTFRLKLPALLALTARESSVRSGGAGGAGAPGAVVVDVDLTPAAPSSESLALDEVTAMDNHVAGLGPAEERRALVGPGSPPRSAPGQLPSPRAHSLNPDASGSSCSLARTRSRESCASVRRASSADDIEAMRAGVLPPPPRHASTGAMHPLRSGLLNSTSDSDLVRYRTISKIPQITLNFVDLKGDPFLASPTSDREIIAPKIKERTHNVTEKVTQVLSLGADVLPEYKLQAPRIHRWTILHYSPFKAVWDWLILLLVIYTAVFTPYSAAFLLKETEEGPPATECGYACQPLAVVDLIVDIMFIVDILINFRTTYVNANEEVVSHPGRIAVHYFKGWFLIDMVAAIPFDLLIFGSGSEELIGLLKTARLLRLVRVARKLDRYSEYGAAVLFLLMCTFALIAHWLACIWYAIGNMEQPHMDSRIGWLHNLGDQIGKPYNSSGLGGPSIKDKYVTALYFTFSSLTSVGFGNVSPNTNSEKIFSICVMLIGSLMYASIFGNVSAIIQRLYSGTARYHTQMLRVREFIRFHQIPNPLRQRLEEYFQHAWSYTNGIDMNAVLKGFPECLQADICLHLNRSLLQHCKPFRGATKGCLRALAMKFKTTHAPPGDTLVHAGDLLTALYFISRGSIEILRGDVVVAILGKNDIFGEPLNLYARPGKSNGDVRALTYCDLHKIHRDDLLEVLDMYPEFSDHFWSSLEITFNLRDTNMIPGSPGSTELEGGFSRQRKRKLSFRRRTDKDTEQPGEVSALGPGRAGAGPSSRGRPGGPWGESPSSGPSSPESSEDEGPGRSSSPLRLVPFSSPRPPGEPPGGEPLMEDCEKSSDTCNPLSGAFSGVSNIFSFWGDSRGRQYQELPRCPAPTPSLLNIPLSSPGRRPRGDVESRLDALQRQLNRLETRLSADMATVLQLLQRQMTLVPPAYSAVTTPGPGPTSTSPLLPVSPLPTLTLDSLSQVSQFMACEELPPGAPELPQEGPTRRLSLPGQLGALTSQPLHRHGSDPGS

Compound | hERG current change (%, negative = inhibition) at 10uM
CS(=O)(=O)N(Cc1nnc(-c2cccs2)o1)c1ccc(Cl)cc1F | -18.4%
Cc1noc(/C=C/N(C)C)c1S(=O)(=O)N(C)CC(=O)NC1CCCCC1 | -0.565%
COc1ccc(C2NS(=O)(=O)N=C2N)cc1 (centres unmarked) | 15.8%
O=C(NCc1ccncc1)C(=O)NCc1ccncc1 | 12.7%
CCC(C)NC(=O)Cn1cnc2sc(C)cc2c1=O (centres unmarked) | -0.928%
COc1ccc(CN(C)C(=O)c2cc(S(=O)(=O)NCc3ccccc3)ccc2C)c(OC)c1 | -40.1%
Cc1noc(C)c1CC(=O)Nc1ccc2c(c1)OCO2 | -4.52%
CC(N=Cc1ccccc1O)c1ccccc1 (centres unmarked) | 9.43%
NS(=O)(=O)c1ccc(CNC(=O)Cc2ccccc2F)cc1 | -2.22%
CC(C)NC(=O)c1ccc(CS(=O)(=O)c2ccc(Br)cc2)o1 | -8.14%
COc1ccc(NC(=O)O/N=C2/CCCc3ccc(OC)cc32)cc1 | -1.7%
CCOC(=O)N1CCN(C(=O)c2ccccc2NS(=O)(=O)c2ccc(C)cc2)CC1 | -10.8%
Cc1cccc(-n2c(Cc3cc(=O)[nH]c(=O)[nH]3)nnc2SCC(=O)Nc2cccc(C(F)(F)F)c2)c1 | 4.79%
Cc1ccc(C)c(NC(=O)C2CC(O)CN2C(=O)Oc2ccccc2)c1 (centres unmarked) | 17.6%
COc1ccc(C2CC(=O)C(C=NCCCO)=C(O)C2)cc1 (centres unmarked) | 11.8%
Cc1ccc(CN2C(=O)N/C(=C\c3ccc(-c4ccc(C(=O)O)cc4C)o3)C2=O)cc1 | -8.89%
COc1cc(OC)c(NC(=O)C(=O)CC(=O)c2ccc(C)cc2C)cc1Cl | 14.2%
Cc1ccccc1-n1c(SCC(=O)c2cc(C)n(C)c2C)nnc1-c1cccnc1 | -27.6%
CCN(CC)S(=O)(=O)c1ccc(C)c(NC(=O)Cn2c(=O)cnc3ccccc32)c1 | -26.5%

Compound | hERG current change (%, negative = inhibition) at 10uM
C=CCOC(=O)C1C(=O)CC(C)(O)C(C(=O)OCC=C)C1c1ccc(N(C)C)cc1 (centres unmarked) | 12.5%
Cc1cccc(Nc2c(-c3ccc(N4CCOCC4)cc3)nc3ncccn23)c1 | 0.307%
Cc1ccc(/C=N/Nc2ccc(Cl)c(C(=O)O)c2)s1 | 10%
Cc1cnn(-c2cc(N/N=C/c3ccccc3F)ncn2)c1 | 7.71%
CCCN(C(=O)c1cnccn1)c1c(N)n(Cc2ccccc2)c(=O)[nH]c1=O | 0.0848%
CCOCc1cc(CN2CCC(CCC(=O)NC3CC3)CC2)ccc1OC | -62.1%
Cl.c1ccc2c(N3CCOCC3)nc(N3CCOCC3)nc2c1 | -19.4%
O=C1CC(c2ccc(Cl)cc2)SC(N(c2ccccc2)c2ccccc2)=N1 (centres unmarked) | -9.95%
c1ccc(-c2noc(-c3ccno3)n2)nc1 | -11.6%
CCCc1ccc(C2=Nn3c(nnc3C(C)C)SC2)cc1 | -6.25%
CC(C)c1nc(SCC(=O)N2CCc3ccccc32)n[nH]1 | -15.4%
O=c1c2ccccc2nnn1CCO | 23%
Cc1nc(-c2ccc(S(=O)(=O)Nc3ccccc3C)cc2)co1 | -4.2%
Cc1c(Cl)c([N+](=O)[O-])nn1CCCC(=O)N1CCN(c2ccccc2)CC1 | -58%
Nc1ccccc1Nc1ccc([N+](=O)[O-])cc1[N+](=O)[O-] | -28.8%
Cc1c(-c2ccc(F)cc2)[n+](=O)c2c(n1[O-])CCCCC2 | 17.5%
Nc1nc2n(n1)C(c1cccs1)CC(c1ccccc1)N2 (centres unmarked) | -23.5%
Cc1ccc(S(=O)(=O)N2CCC(=O)N(CCOCc3ccccc3C)CC2)cc1 | 1.16%
O=C(C1=C[C@H](c2csc3ccccc23)C[C@H](OCCCCO)O1)N1CCN(Cc2ccc3c(c2)OCO3)CC1 | -12.8%

Compound | hERG current change (%, negative = inhibition) at 10uM
Cc1ccc(C)c(NC(=O)Cn2nc(-c3ccccc3)nc2-c2ccccc2)c1 | 8.98%
CCCc1nnc(SCCSc2nnc(CCC)n2N)n1N | 6.88%
Cc1c(Cl)cccc1N(Cc1ccc(C(=O)O)cc1)S(=O)(=O)c1ccccc1 | -4.17%
CCN1CCN(C(c2ccccc2F)c2nnnn2Cc2ccc3c(c2)OCO3)CC1.Cl (centres unmarked) | -37.6%
O=C(Nc1ccnn1C1CCN(Cc2cc3ccccc3[nH]2)CC1)C1CCOC1 (centres unmarked) | -31.5%
O=C(CS(=O)(=O)c1cccc(Cl)c1)Nc1ccccc1Cl | 1.6%
Cc1cc(C)nc(NS(=O)(=O)c2ccc(N3C(=O)C4CC=C(Cl)CC4C3=O)cc2)n1 (centres unmarked) | 1.81%
CCOc1ccc(N2CC(C(=O)Nc3ccc(S(=O)(=O)N4CCOCC4)cc3)CC2=O)cc1 (centres unmarked) | -8.96%
COC(CNC(=O)C1CCCCC1C(=O)O)OC (centres unmarked) | -1.45%
COc1cccc(/C=C/C(=O)OCC(=O)Nc2cc(S(=O)(=O)N3CCOCC3)ccc2C)c1 | -1.3%
COc1ccc(/C=C2\N=C(C(C)(C)C)OC2=O)c(OC)c1 | 19.5%
N#Cc1ccccc1Oc1ccc(S(=O)(=O)N2CCCCC2)cn1 | -79.6%
CCc1ccccc1OCC(=O)Nc1cc(S(=O)(=O)N(CC)CC)ccc1N1CCOCC1 | -7.83%
Cc1nc(CCNS(=O)(=O)c2cccs2)cs1 | 2.51%
COc1ccc2ccccc2c1CNC(C)CCc1ccccc1.O=C(O)C(=O)O (centres unmarked) | -77.8%
O=C(c1ccc(Cl)cc1)C1CCCN(Cc2cccc3cccnc23)C1 (centres unmarked) | -75.9%
N#CC(C#N)=Cc1ccc(OC(=O)c2ccccn2)cc1 | 1.46%
Nc1nnc(SCCOc2ccccc2)s1 | -10.1%
